Measurements published in ChEMBL document CHEMBL4888484, “Replenishing the malaria drug discovery pipeline: Screening and hit evaluation of the MMV Hit Generation Library 1 (HGL1) against asexual blood stage Plasmodium falciparum ,using a nano luciferase reporter read-out” (2022).
Hit rate of the full screen: of about 150,000 compounds, about 540 (0.36%) showed an effect of 50% or more. The list shows a part of the results.

The molecules below were run on Plasmodium falciparum (assay: Primary screen in NF54 nanoGlo assay, in single point, at 2uM, 72h; a lower Z score goes with more inhibition). Conditions: timepoint 72 hour.
Type: functional, Erythrocyte
For CC[C@@H](Cc1ccc(C)cc1)N(C)C(=O)c1cncc(C(=O)O)c1, the “% Inhibition” value was 11% and the Z score was -1.22. CC1(C(=O)N2CCC(OCCCc3ccccc3)C2)CCC(=O)NC1 (stereo not given) was tested, and the “% Inhibition” value was -12% and the Z score was 1.72. Cc1ccsc1[C@@H]1CCCCCN1S(=O)(=O)c1ccc(F)cc1 was tested, and the “% Inhibition” value was -12% and the Z score was 1.58. CCn1cc(CN(CCOC)CC(=O)N2CCCCCC2)cn1 was tested, and the “% Inhibition” value was -14% and the Z score was 2.31. For c1nc(N2CCC(n3cc(C4CC4)nn3)CC2)c2nc[nH]c2n1, the “% Inhibition” value was -24% and the Z score was 2.86. Cc1ccsc1[C@H](C)NCc1cccc(COC2CCOCC2)c1 was tested, and the “% Inhibition” value was -1% and the Z score was 0.08. In the case of CCc1ncc(CN2CCn3c(Cc4ccccc4F)nnc3C2)o1, the “% Inhibition” value is reported as -16% and the Z score is reported as 1.76. CC(C)n1cc(CNC(=O)Cc2cc3ccccc3s2)nn1 was tested, and the “% Inhibition” value was -15% and the Z score was 1.9. For CCOC(=O)c1noc2ncnc(NC3CCN(Cc4ccccc4)CC3)c12, the “% Inhibition” value was 1% and the Z score was -0.25. In the case of CS(=O)(=O)N[C@H]1CCCN(Cc2ccn(-c3ccc(F)cc3F)n2)C1, the “% Inhibition” value is reported as 1% and the Z score is reported as -0.1. In the case of O=C1Nc2ccc(Br)cc2C(=O)N2CCN(C(=O)c3ccccc3)C[C@H]12, the “% Inhibition” value is reported as 17% and the Z score is reported as -1.94. C=CCCS(=O)(=O)N1CCN(S(=O)(=O)CCC=C)[C@@H](C)C1 was tested, and the “% Inhibition” value was 1% and the Z score was -0.09. For COCc1noc(CCNC(=O)Nc2cc(-n3cnnn3)cc(C)c2C)n1, the “% Inhibition” value was -25% and the Z score was 2.19. For CCN(CC(C)C)C(=O)c1ncoc1C(C)C, the “% Inhibition” value was 6% and the Z score was -0.79. In the case of C[C@@H](C(=O)N1CCC(c2ncon2)CC1)n1cc(Cl)cn1, the “% Inhibition” value is reported as 10% and the Z score is reported as -1.35. With CCN(CC)c1ccc(C(c2c[nH]c3ccccc23)c2c[nH]c3ccccc23)c(OC)c1 the “% Inhibition” value was -40% and the Z score was 4.74. In the case of CC[C@H](Nc1ccc(C(=O)NCc2noc(C(C)C)n2)cn1)c1ncnn1C, the “% Inhibition” value is reported as -11% and the Z score is reported as 1.36. In the case of Cc1sc(NC(=O)c2scnc2C2CC2)nc1-c1c(F)cc(F)cc1F, the “% Inhibition” value is reported as -6% and the Z score is reported as 0.68. CC[C@H]1CN(CC)CCN1C(=O)c1ccn(C(C)C)n1 was tested, and the “% Inhibition” value was -16% and the Z score was 2.03. With Cc1cnc(NC(=O)CCC(=O)Nc2nc(C(=O)O)c(C(C)C)s2)s1 the “% Inhibition” value was -13% and the Z score was 1.66. CC1(C)NC(=O)N(CCNC(c2ccccc2)c2ccccc2)C1=O was tested, and the “% Inhibition” value was -5% and the Z score was 0.78. For C#Cc1cccc(N(Cc2nc(N)nc(N(C)C)n2)C(C)C)c1, the “% Inhibition” value was 1% and the Z score was -0.09. Cc1cc(C)n(CC(=O)N2CCC[C@@](F)(C(=O)N3CCOCC3)C2)n1 was tested, and the “% Inhibition” value was -11% and the Z score was 0.94. For COc1cccc(CNC(=O)c2cc(NS(C)(=O)=O)cc3nc(C)n(Cc4ccccc4)c23)c1, the “% Inhibition” value was -5% and the Z score was 0.8. With Cn1cc(-c2cc3n(n2)CCC(=O)N3CC(=O)Nc2cccc(F)c2)c2ccccc21 the “% Inhibition” value was 3% and the Z score was -0.5. O=c1[nH]nc2n1CCN(Cc1ccncc1)CC2 was tested, and the “% Inhibition” value was -11% and the Z score was 1.51. For CCC(CC)C(=O)N(C)c1ccc(-c2ccccc2)nn1, the “% Inhibition” value was -9% and the Z score was 1.68. For NS(=O)(=O)CC1CCN(Cc2cc3ccccc3[nH]c2=O)CC1, the “% Inhibition” value was 1% and the Z score was -0.12. O=C(NCCS(=O)(=O)NCc1cccs1)c1ccccc1 was tested, and the “% Inhibition” value was -6% and the Z score was 0.82. For COc1cc(-c2cccc(C(=O)NC3CCOCC3)c2)cc(OC)c1OC, the “% Inhibition” value was -8% and the Z score was 1.53. With Clc1ccc(-c2nc3cc(-n4cnnc4)ccc3o2)cc1 the “% Inhibition” value was -17% and the Z score was 2.38. With O=C(c1ccc(-c2nc(C3CC3)no2)cc1)N1CCCCCC1 the “% Inhibition” value was 26% and the Z score was -2.92. With CCC(NC(=O)N1CC(C)OC2(CCCCC2)C1)C(F)F (stereo not given) the “% Inhibition” value was 4% and the Z score was -0.8. CC1(C2CCN(C(=O)c3ccc4[nH]cnc4c3)CC2)OCCO1 was tested, and the “% Inhibition” value was -11% and the Z score was 1.55. With CCn1nc(C)c2ccn(CC(=O)NCc3ccc4c(c3)OCO4)c(=O)c21 the “% Inhibition” value was 13% and the Z score was -1.28. With O=C(Cn1ccc(=O)cc1)NCCc1csc(-c2ncccn2)n1 the “% Inhibition” value was -10% and the Z score was 1.42. For Cc1nn(CC(=O)N(Cc2ccccn2)Cc2ccco2)c(C)c1C, the “% Inhibition” value was -22% and the Z score was 3.24. For COc1ccc(C2(NC(=O)Cn3nccn3)CCCCCC2)cc1, the “% Inhibition” value was 1% and the Z score was -0.08. With Cc1cc2[nH]c(=O)[nH]c2cc1S(=O)(=O)NC1CCCCC1 the “% Inhibition” value was -5% and the Z score was 0.69. For O=C(CCc1conc1-c1ccc(F)cc1)NC1CCCCC1, the “% Inhibition” value was -14% and the Z score was 1.91. In the case of COc1ccc(Nc2nn(-c3ccc(OC(F)(F)F)cc3)nc2C(C)=O)c2ncccc12, the “% Inhibition” value is reported as -13% and the Z score is reported as 1.85. For Cc1nc(O)cc([C@H]2CCCN(C(=O)COCC(F)(F)C(F)F)C2)n1, the “% Inhibition” value was -15% and the Z score was 1.51. With Cn1nccc1[C@@H]1CCCN1Cc1nccc(N)n1 the “% Inhibition” value was -1% and the Z score was 0.11. With N#Cc1cnc(OCC2CC(F)(F)C2)c(Cl)c1 the “% Inhibition” value was -9% and the Z score was 1.22. CC1CC(C)CN(Cc2csc(NC(=O)Cc3cccc(F)c3)n2)C1 (stereo not given) was tested, and the “% Inhibition” value was -6% and the Z score was 1.12. With CN(c1ccccc1NC(=O)Cc1ccon1)C1CCCC1 the “% Inhibition” value was -12% and the Z score was 1.89. In the case of CCN(c1ccccc1)S(=O)(=O)c1cc(-c2[nH]nc(C)c2C)sc1C, the “% Inhibition” value is reported as -18% and the Z score is reported as 2.08. In the case of CC[C@H](C)N(Cc1ccsc1)C(=O)c1cc(Cl)cn1C, the “% Inhibition” value is reported as -9% and the Z score is reported as 1.43. With CCNc1ccc(Nc2ncnc3c2nnn3C)cn1 the “% Inhibition” value was -10% and the Z score was 1.83. For Cc1cc(N[C@@H](C)c2cnn(C)c2)nc(N)n1, the “% Inhibition” value was -2% and the Z score was 0.27. For Cc1ccc(Cn2ncc3c2NC(=O)C[C@]32C(=O)N(C)c3ccc(C)cc32)cc1, the “% Inhibition” value was -9% and the Z score was 1.2. For COCC(C)(O)C(=O)N1CCCC(n2cnc3ccccc32)C1 (stereo not given), the “% Inhibition” value was -14% and the Z score was 1.28. In the case of CCc1nnc(NC(=O)Cc2c(C)noc2C)s1, the “% Inhibition” value is reported as -2% and the Z score is reported as 0.29. With CC(NC(=O)C1CC(c2ccc(F)cc2)CN(Cc2ccccc2Cl)C1)c1ccccc1 (stereo not given) the “% Inhibition” value was 4% and the Z score was -0.56. Cn1cc(-c2nn(Cc3ccc(Cl)cc3Cl)c(-c3cnn(C)c3)c2Cl)cn1 was tested, and the “% Inhibition” value was 3% and the Z score was -0.51.
